# Experimental data from PubChem BioAssay AID1030 (National Center for Advancing Translational Sciences (NCATS), 2008).
# Out of some 220,000 compounds screened, about 16,000 (7.3%) were called active. The inconclusive results got no clear call from the source; some entries with a clear call stand among them for comparison. Calls follow the shape of the dose curve; as a rule, active = well fitted inhibition curve with a large enough effect (not every such curve was filed as active); inconclusive = small, poorly fitted or top-dose-only effect, or another doubt; inactive = no such curve, though single readings can be large or run the other way. No potency is given beside an inconclusive call; the fits are too rough.
# Molecular target: Aldehyde dehydrogenase 1A1 (Homo sapiens) (UniProt P00352)
# Sequence of UniProt P00352 (P00352 whole entry, looked up): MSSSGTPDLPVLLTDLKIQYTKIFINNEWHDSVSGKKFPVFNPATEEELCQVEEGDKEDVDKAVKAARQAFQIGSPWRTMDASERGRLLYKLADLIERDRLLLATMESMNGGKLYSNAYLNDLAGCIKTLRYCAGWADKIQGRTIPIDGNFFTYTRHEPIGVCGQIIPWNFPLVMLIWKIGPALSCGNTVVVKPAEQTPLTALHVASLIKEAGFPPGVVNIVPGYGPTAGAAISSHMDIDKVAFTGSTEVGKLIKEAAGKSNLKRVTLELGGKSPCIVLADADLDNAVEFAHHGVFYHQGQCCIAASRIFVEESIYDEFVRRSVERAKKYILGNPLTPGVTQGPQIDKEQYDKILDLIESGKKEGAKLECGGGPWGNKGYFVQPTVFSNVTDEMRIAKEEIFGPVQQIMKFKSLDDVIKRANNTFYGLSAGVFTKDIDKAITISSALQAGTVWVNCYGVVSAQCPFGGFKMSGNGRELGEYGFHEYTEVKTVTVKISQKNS
# Test: qHTS Assay for Inhibitors of Aldehyde Dehydrogenase 1 (ALDH1A1);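 as to activity, negative = inhibition: plate controls were no enzyme wells and a reference inhibitor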
# Conditions: Purified ALDH1A1, NADH fluorescence, propionaldehyde substrate; series mostly up to 75.3 µM
# Potency is read from the fitted curve at half-maximal effect; tags tell the direction and shape of the fitted curve.
SMILES,Potency,"activity, negative = inhibition"
O=[N+]([O-])c1ccc(S(=O)(=O)NCCc2ccncc2)cc1,inactive,–
COc1ccc(OC)c(CN2CCC(C(=O)N3CCOCC3)CC2)c1,"inconclusive [inhibitor, single point]",–
COc1ccc(CNC(=O)c2cnc(C)cn2)c(OC)c1,"inconclusive [inhibitor, single point]",–
CCc1ccccc1N1C(=O)c2cccc3c(N4CCOCC4)c([N+](=O)[O-])cc(c23)C1=O,"inconclusive [inhibitor, partial curve]",–
O=C1CC(NCC2CCCO2)C(=O)N1c1ccc(F)cc1 (stereo not given),"inconclusive [inhibitor, single point]",–
CCC(=O)NC(=S)Nc1ccc(NC(=O)c2ccco2)c(OC)c1,inactive,–
CCOc1ccc(-n2c(C)cc(/C=C3/C(=N)N4C(=NC3=O)SN=C4S(C)(=O)=O)c2C)cc1,active: 17.8 µM,–
c1ccc2nc(C3=NCCN3)cnc2c1,inactive,–
CC(=O)NC(Cc1ccc(C(C)C)cc1)C(=O)NC1CCN(c2nc(C)cc(C)n2)CC1 (stereo not given),"inconclusive [inhibitor, partial curve]",–
COc1ccc(CCNC(=O)CSc2nc(-c3ccc(OC)c(OC)c3)ccc2C#N)cc1,"inconclusive [inhibitor, full curve]",–
COC(=O)NNC(=O)c1ccc(C)c(Br)c1,inactive,–
CN(Cc1ccccc1)C(=O)c1oc(=O)c2ccccc2c1-c1ccccc1,"inconclusive [inhibitor, single point]",–
Cc1ccccc1NC(=S)NNC(=O)c1cccnc1,"inconclusive [inhibitor, partial curve]",–
S=C(Nc1ccccc1)Nc1ccccc1C#Cc1ccccc1,active: 17.8 µM,–
CC1(C)CC(=O)C=C(Nc2ccc(F)cc2)C1,"inconclusive [inhibitor, single point]",–
CCCCc1ccc(S(=O)(=O)NCCc2ccncc2)cc1,inactive,–
CC(C)Cn1c(N)c(C(=O)COC(=O)c2ccc([N+](=O)[O-])o2)c(=O)n(C)c1=O,active: 17.8 µM,–
Cc1cc(-c2nnc(-c3ccccc3)c(-c3ccccc3)n2)c(C)o1,active: 6.31 µM,–
COc1ccccc1NC(=O)Nc1cc(F)ccc1F,inactive,–
Nc1cc(-c2ccncc2)c[nH]c1=O,active: 11.2 µM,–
COC(=O)C1CCN(CC(=O)NC(=O)NC2CCCCC2)CC1,"inconclusive [inhibitor, partial curve]",–
O=C(NCc1ccccn1)c1ccc(NC(=O)c2ccco2)cc1,"inconclusive [inhibitor, single point]",–
CCN1C(=O)C(C)S/C1=N\S(=O)(=O)c1ccc(Cl)s1 (stereo not given),"inconclusive [inhibitor, full curve, poor fit]",–
CCC(CC)C(=O)Nc1cccc(C(=O)Nc2ccc3c(c2)OCO3)c1,active: 12.6 µM,–

SMILES,Potency,"activity, negative = inhibition"
Cc1ccc(NC(=O)c2oc3ccc(S(=O)(=O)N4CCOCC4)cc3c2C)c(C)c1,"inconclusive [inhibitor, single point]",–
O=C(N/N=C/C1CC=CCC1)c1ccc(O)cc1O (stereo not given),"inconclusive [inhibitor, partial curve]",–
COc1ccc(-c2noc(CCC(=O)O)n2)cc1,inactive,–
O=C(O)c1nnsc1-c1ccc(-c2snnc2C(=O)O)cc1,active: 3.98 µM,–
O=C(CCn1nc(-c2ccccc2)c2ccccc2c1=O)N1CCN(c2ccccc2)CC1,active: 22.4 µM,–
O=c1c(C=NCc2ccccc2)c(NCc2ccccc2)nc2ccccn12,"inconclusive [inhibitor, partial curve]",–
CC(=O)NCCC(=O)N1CCCC(C(=O)c2ccc3c4c(cccc24)CC3)C1 (stereo not given),"inconclusive [inhibitor, single point]",–
COc1cccc(-c2cc(C(=O)N3CCCc4ccccc43)no2)c1,"inconclusive [inhibitor, single point]",–
Cc1cccc(C)c1OC(=O)CSc1nnc(-c2ccccc2O)o1,"inconclusive [inhibitor, single point]",–
CC(C)c1ccc(/C=C2\SC(N3CCCC3)=NC2=O)cc1,inactive,–
CCOC(=O)c1sc2nc(N3CCOCC3)c3c(c2c1N)CC(C)(C)N(C)C3,"inconclusive [inhibitor, partial curve]",–
Cc1ccc(C)c2nc(SCC(=O)NCc3cccs3)c(C#N)cc12,"inconclusive [inhibitor, single point]",–
Cc1ccc(-c2nn(CCC#N)cc2C=C(C#N)C#N)cc1,active: 20 µM,–
NC(=O)CSc1nc(C23CC4CC(CC(C4)C2)C3)nc2ccccc12,"inconclusive [inhibitor, partial curve]",–
O=C(O)CCn1cc(/C=C2/NC(=S)N(c3ccccc3)C2=O)c(-c2ccccc2)n1,"inconclusive [inhibitor, partial curve]",–
O=C(COC(=O)c1cc(=O)[nH]c(=O)[nH]1)Nc1cccc(S(=O)(=O)N2CCOCC2)c1,"inconclusive [inhibitor, single point]",–
O=C(O)COc1ccc(-c2nnn(Cc3ccccc3F)n2)cc1,"inconclusive [inhibitor, single point]",–
CC(C)Cn1c(N)c(C(=O)COC(=O)c2ccc3c(c2)OCCO3)c(=O)n(C)c1=O,inactive,–
Cc1ccc2cc(COC(=O)c3ccco3)c(=O)[nH]c2c1,"inconclusive [inhibitor, single point]",–
O=c1c2ccccc2nc2n1C(CSCc1ccccc1)CS2 (stereo not given),"inconclusive [inhibitor, single point]",–
O=C(C/C=N\OCc1ccc([N+](=O)[O-])cc1)Nc1ccc(F)cc1F,inactive,–
CCOC(=O)c1ccc(Cl)c(NC(=O)c2cccnc2)c1,active: 11.2 µM,–
CCOc1ccc(-n2c(Cc3cc(=O)[nH]c(=O)[nH]3)nnc2SCC(=O)OC)cc1,inactive,–
CCN(CC)S(=O)(=O)c1ccc(N2CCOCC2)c(NC(=O)c2ccccc2)c1,"inconclusive [inhibitor, single point]",–

SMILES,Potency,"activity, negative = inhibition"
O=C(CSc1nc2c(cnn2-c2ccccc2)c(=O)[nH]1)N1N=C(c2cccs2)CC1c1ccc(F)cc1 (stereo not given),"inconclusive [inhibitor, partial curve]",–
COc1cc(/C=c2\sc3nc(=O)c(-c4ccccc4)nn3c2=O)ccc1OCCC(C)C,"inconclusive [inhibitor, single point]",–
CCc1nnc(NS(=O)(=O)c2ccc(NC(=S)Nc3ccc(F)cc3)cc2)s1,"inconclusive [inhibitor, single point]",–
O=C1c2oc3ccc(Cl)cc3c(=O)c2C(c2ccccn2)N1CCCN1CCOCC1 (stereo not given),active: 7.94 µM,–
CCOC(=O)c1ccc(N2NC(=O)/C(=C/c3ccc(OC(=O)c4ccco4)c(OC)c3)C2=O)cc1,"inconclusive [inhibitor, single point]",–
Cc1ccc(C2C(C#N)=C(N)OC3=C2C(=O)CCC3)s1 (stereo not given),"inconclusive [inhibitor, single point]",–
CC(C)[C@]1(Cl)CC[C@@H]2[C@]3(C)CCC[C@@](C)(C(=O)O)[C@H]3C[C@H](Cl)[C@@]2(Cl)[C@H]1Cl,–,inactive: 0.422% [at 13.5 µM]
NC(=O)c1ccccc1NC(=O)CS(=O)(=O)Cc1ccccc1,"inconclusive [inhibitor, single point]",–
Cc1cc(NC(=O)CC(F)(F)F)n(-c2ccccc2)n1,inactive,–
CCCCOc1ccc(C2C(C(=O)c3ccc(C)o3)=C(O)C(=O)N2CC2CCCO2)cc1 (stereo not given),"inconclusive [inhibitor, single point]",–
CCOC(=O)N1CCN(C(=O)C2CCN(S(=O)(=O)CC)CC2)CC1,inactive,–
COc1ccc2sc(N(CCCN(C)C)C(=O)c3nc4ccccc4s3)nc2c1,"inconclusive [inhibitor, single point]",–
Clc1ccc(CSc2ncccn2)cc1,inactive,–
COc1ccc(-c2cc3nc(-c4ccccc4)cc(N4CCC(O)CC4)n3n2)cc1,"inconclusive [inhibitor, partial curve]",–
Cc1cc(C)cc(N(C(=O)Cn2nnc3ccccc32)C(C(=O)NCc2ccco2)c2ccncc2)c1 (stereo not given),"inconclusive [inhibitor, single point]",–
c1ccc(-n2c(SCC3CCCCO3)nnc2-c2cnccn2)cc1 (stereo not given),"inconclusive [inhibitor, single point]",–
COc1ccccc1NC(=O)Cc1csc(NC(=S)Nc2ccccc2)n1,"inconclusive [inhibitor, single point]",–
Oc1oc(C=Nc2ccc(F)cc2F)c2ccccc12,"inconclusive [inhibitor, single point]",–
O=C(Oc1ccc2c(=O)c(Cl)coc2c1)c1cccnc1,active: 20 µM,–
CCn1c(SCC(N)=O)nnc1-c1ccc(S(=O)(=O)N2CCN(C)CC2)cc1,"inconclusive [inhibitor, single point]",–
CCOC(=O)C(NC(=O)c1ccc(F)cc1)(Nc1sc2c(c1C(N)=O)CCC2)C(F)(F)F (stereo not given),"inconclusive [inhibitor, single point]",–
O=C(NC1CCc2ccccc21)C12CN(Cc3ccccc3)CC1C(c1cccc([N+](=O)[O-])c1)=NO2 (stereo not given),"inconclusive [inhibitor, partial curve]",–
